PubChem BioAssay AID2202238 (Ras Initiative Chemistry Research Team, Frederick National …, 2025)
Some of the results follow. These are further read-outs of the screen, such as a control signal, another cell line or another target. No call is given for them.

Target: GTPase KRas (Homo sapiens) (UniProt P01116)
Experiment: Fragment capture on engineered cysteines, share of protein labelled (AID 2202238)
Set-up: protein at 5 µM with 500 µM competing thiol for 1.5 h
Conditions: KRAS G12D cysteine mutants, disulfide tethering, MALDI-TOF labeling, stronger effect = higher value, fragment at 500 µM
[1] = measured here: G60C mutant labeling
[2] = measured here: G75C mutant labeling
[3] = measured here: H94C mutant labeling
[4] = measured here: I36C mutant labeling
[5] = measured here: L120C mutant labeling
[6] = measured here: M67C mutant labeling
[7] = measured here: M72C mutant labeling
[8] = measured here: N26C mutant labeling
[9] = measured here: N86C mutant labeling
[10] = measured here: P121C mutant labeling
[11] = measured here: S122C mutant labeling
[12] = measured here: S136C mutant labeling

Sequence of UniProt P01116 (P01116 whole entry, looked up, the tested form may be a part): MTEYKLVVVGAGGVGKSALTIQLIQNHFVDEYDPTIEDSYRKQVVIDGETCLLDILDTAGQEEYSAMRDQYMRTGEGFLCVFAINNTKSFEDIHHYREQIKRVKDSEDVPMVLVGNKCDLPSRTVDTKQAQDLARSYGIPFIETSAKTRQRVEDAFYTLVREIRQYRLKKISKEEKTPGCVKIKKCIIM

Row | SMILES | percent labeling [1] [%] | percent labeling [2] [%] | percent labeling [3] [%] | percent labeling [4] [%] | percent labeling [5] [%] | percent labeling [6] [%] | percent labeling [7] [%] | percent labeling [8] [%] | percent labeling [9] [%] | percent labeling [10] [%] | percent labeling [11] [%] | percent labeling [12] [%]
1 | O=C(CCNC(=O)c1c[nH]c2ccccc12)NCCS | 49.7 | 22.6 | 42.3 | 32.5 | 41.2 | 69.6 | 38 | 42.7 | 29.4 | 40.6 | 35.3 | 43.1
2 | O=C(COc1ccc2oc3c(c2c1)CCCC3)NCCS | 33.5 | 17.7 | 17.3 | 10.2 | 16 | 12 | 29.6 | 22.9 | 12.4 | 12.9 | 8.6 | 11.8
3 | CN(C(=O)CCS)C1c2cc(Cl)cc(Cl)c2CC1O (stereo not drawn) |  | 29.8 | 22.9 | 24.5 | 17.1 | 23.6 | 33.7 |  | 22 | 22.9 | 16.5 | 32.3
4 | O=C(Cc1ccc(F)c(Cl)c1)NCCS | 56.2 | 21.3 | 30.8 | 28.2 | 33.8 | 29.8 | 38.6 | 37.5 | 21.6 | 28.7 | 21.7 | 39.5
5 | O=C(CCS)NCC1(COc2ccc(Br)cc2)COC1 |  | 13.2 | 12.3 | 0 | 13.8 | 33.2 | 33.3 |  | 8.8 | 2.9 | 16.3 | 4.8
6 | CC(C(=O)NCCS)c1ccc(Br)cc1 (stereo not drawn) | 55.5 | 22.4 | 29.9 | 17.9 | 57.4 | 22.4 | 42.6 | 38.9 | 20.7 | 25.4 | 19 | 36.3
7 | Cc1cc(OCC(=O)NCCS)cc(C)c1Cl | 35.1 | 15.1 | 13 | 9.2 | 14.6 | 9.5 | 34.6 | 25.5 | 11.8 | 11.9 | 9.7 | 14.5
8 | CN(C)Cc1ccoc1-c1n[nH]c(CNC(=O)CCS)n1 |  | 6.7 | 25.6 | 41.9 | 27.3 | 38.6 | 13.8 |  | 16.2 | 28.3 | 26.2 | 40.9
9 | O=C(CCS)NC1CCN(c2ccn[nH]2)C1=O (stereo not drawn) |  | 16.6 | 25.7 | 37.2 | 43.6 | 32.1 | 18.3 |  | 40.6 | 36.2 | 38.2 | 54.8
10 | Cc1cc(=O)c(OCc2ccccc2)c(CNC(=O)CCS)n1C |  | 12.9 | 29.2 | 32 | 21.6 | 35.6 | 18 |  | 9.9 | 25.2 | 27.2 | 59.2
11 | Cc1sc(C(N)=O)cc1NC(=O)CCS |  | 21.3 | 42.7 | 43.9 | 32.7 | 36 | 41 |  | 43.8 | 32 | 43.7 | 52
12 | O=C(CCS)Nc1cccc(-c2cccnc2)c1 |  | 18.9 | 26.3 | 30.6 | 23.5 | 18.6 | 49.1 |  | 16.3 | 17.5 | 15.8 | 40.8
13 | O=C(CCS)NC1(c2ccc(F)cc2F)CCCCC1 |  | 12.7 | 26.5 | 29 | 21.5 | 23.3 | 48 |  | 19.5 | 23.5 | 20.2 | 41.3
14 | Cc1ccc(NC(=O)CCS)cc1Oc1ccc(Cl)cc1 |  | 13.3 | 36.3 | 31.2 | 20.5 | 24.1 | 36 |  | 23.6 | 19.3 | 10.3 | 37.9
15 | Cc1cccc(=O)n1CC(C)(O)C(=O)NCCS (stereo not drawn) | 27.4 | 10.4 | 29.6 | 20.3 | 26.3 | 31.7 | 11 | 32.1 | 19.7 | 29.6 | 28.5 | 37.1
16 | O=C(CCS)N1CCC(O)(C2CCCCC2)CC1 |  | 23.7 | 37.1 | 32.1 | 37.8 | 50.3 | 44.6 |  | 29.3 | 38.8 | 40.4 | 65.7
17 | Cc1ccc(C2=CCN(C(=O)CCS)CC2)cc1 |  | 4.8 | 9.2 | 0 | 3.3 | 2.7 | 6.3 |  | 2.6 | 3.5 | 8 | 4.7
18 | O=C(NCCS)c1cnnn1-c1ccccc1Br | 49.8 | 18.6 | 30.3 | 24 | 26.8 | 28.6 | 57.6 | 33.4 | 20.3 | 22.6 | 19.3 | 40.3
19 | O=C(CCS)N1CCC(Cn2cc(Br)cn2)CC1 |  | 16.1 | 38.9 | 38.7 | 30.1 | 46.6 | 27.5 |  | 25.9 | 36.1 | 28.8 | 60.2
20 | COC(=O)c1cn(C2CCCN(C(=O)CCS)C2)nn1 (stereo not drawn) |  | 11.9 | 36.7 | 43.1 | 29.9 | 46 | 23 |  | 35.7 | 35.9 | 29.2 | 57.1
21 | O=C(NCCS)c1cnc(-c2ccc(C(F)(F)F)cc2)[nH]1 | 20.5 | 11.8 | 15.1 | 11 | 14.3 | 10.4 | 32.7 | 34.2 | 13.3 | 11.3 | 7.3 | 16.8
22 | COC1CCCCN(CC(=O)NCCS)C1=O (stereo not drawn) | 20.8 | 6.9 | 25.3 | 18 | 42.6 | 20.6 | 9.6 | 31.1 | 21.8 | 29.2 | 33.2 | 34
23 | O=C(CCS)N1CCC(c2cc(=O)[nH]o2)CC1 |  | 3.6 | 19 | 28.7 | 27.9 | 20.1 | 10 |  | 21.3 | 27.8 | 38.9 | 41.5
24 | Cc1cc(NC(=O)CCS)ccc1Oc1ccncc1 |  | 24.2 | 29.7 | 24.9 | 28.9 | 26.8 | 68.6 |  | 18.3 | 24.7 | 19.9 | 39
